Experimental data from patent publication US20210268071A1 (CSL BEHRING LENGNAU, published 2021).

T1: rVIII-SingleChain (recombinant B-domain-deleted single chain Factor VIII) (Homo sapiens (Human), UniProt P00451 20-2351)
T1 construct: also called rFVIII-SingleChain; FVIII
T1 sequence: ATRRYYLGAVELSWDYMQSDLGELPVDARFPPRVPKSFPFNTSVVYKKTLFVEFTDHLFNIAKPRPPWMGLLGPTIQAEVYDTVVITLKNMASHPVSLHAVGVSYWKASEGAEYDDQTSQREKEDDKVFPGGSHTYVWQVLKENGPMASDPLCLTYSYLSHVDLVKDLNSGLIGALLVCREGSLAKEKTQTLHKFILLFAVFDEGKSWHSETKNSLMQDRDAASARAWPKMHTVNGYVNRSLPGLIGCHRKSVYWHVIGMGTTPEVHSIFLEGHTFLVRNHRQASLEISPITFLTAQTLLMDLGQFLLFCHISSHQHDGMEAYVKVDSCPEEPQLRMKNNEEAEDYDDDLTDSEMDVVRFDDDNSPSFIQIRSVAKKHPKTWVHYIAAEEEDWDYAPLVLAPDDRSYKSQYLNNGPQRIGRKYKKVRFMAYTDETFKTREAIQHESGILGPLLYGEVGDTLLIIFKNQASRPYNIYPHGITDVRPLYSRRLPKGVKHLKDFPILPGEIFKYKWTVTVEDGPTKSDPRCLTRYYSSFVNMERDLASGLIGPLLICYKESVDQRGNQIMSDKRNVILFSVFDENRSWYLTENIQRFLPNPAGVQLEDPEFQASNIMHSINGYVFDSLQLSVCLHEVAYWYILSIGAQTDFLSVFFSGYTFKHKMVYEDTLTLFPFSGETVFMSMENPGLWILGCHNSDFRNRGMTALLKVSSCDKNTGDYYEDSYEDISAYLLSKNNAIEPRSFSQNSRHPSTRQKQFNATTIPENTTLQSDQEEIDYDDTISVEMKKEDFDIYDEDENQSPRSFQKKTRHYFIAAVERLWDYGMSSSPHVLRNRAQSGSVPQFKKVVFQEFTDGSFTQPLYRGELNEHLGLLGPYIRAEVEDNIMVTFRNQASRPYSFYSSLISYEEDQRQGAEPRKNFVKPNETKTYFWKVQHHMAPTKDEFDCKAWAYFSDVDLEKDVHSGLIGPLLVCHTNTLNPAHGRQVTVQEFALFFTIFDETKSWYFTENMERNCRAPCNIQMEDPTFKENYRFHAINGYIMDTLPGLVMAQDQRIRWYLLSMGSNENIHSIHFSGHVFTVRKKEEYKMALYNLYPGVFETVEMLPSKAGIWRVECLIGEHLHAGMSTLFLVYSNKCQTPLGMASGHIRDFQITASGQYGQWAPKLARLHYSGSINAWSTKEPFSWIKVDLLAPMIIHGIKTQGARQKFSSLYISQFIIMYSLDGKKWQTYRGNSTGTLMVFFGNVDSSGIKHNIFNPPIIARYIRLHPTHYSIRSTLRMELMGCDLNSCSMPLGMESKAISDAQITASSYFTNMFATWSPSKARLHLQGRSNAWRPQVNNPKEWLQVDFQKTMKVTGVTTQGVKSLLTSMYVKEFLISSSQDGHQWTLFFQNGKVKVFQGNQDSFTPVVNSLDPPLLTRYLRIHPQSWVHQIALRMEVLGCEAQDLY


What was measured:
[1] = molecular target: T1, rVIII-SingleChain (recombinant …); assay: SPR (Biacore T200), D′D3-FP captured via anti-albumin antibody, rVIII-SingleChain as analyte, single cycle kinetics, 25 °C; D′D3-FP dimer preparation
Protocol: (§1) A VWF fragment (1-1242) albumin fusion (D′D3-FP) was expressed in a bioreactor; after purification as described above and isolation of monomer and dimer, the affinity of FVIII to these preparations was assessed through surface plasmon resonance via a Biacore instrument (T200, GE Healthcare).
(§2) An anti-albumin antibody (MA1-20124, Thermo Scientific) was covalently coupled via its N-terminus to an activated CM 3 chip by NHS (N-Hydroxysuccinimide) and EDC (Ethanolamine hydrochloride), both contained in the amine coupling kit (BR1000-50) from GE Healthcare. For immobilization 3 μg/mL of the antibody were diluted in sodium acetate buffer (10 mM, pH 5.0) and the antibody solution was flown over the chip for 7 min. at a flow rate of 10 μL/min. After the immobilization procedure non-coupled dextran filaments were saturated by flowing ethanolamine solution (1 M, pH 8.3) over the chip for 5 min (at a flow rate of 10 μL/min). The aim of saturating the flow cell was to minimize unspecific binding of the analytes to the chip. A reference flow cell was set up by saturating an empty flow cell with ethanolamine by using the same procedure as above.
(§3) Dimeric and monomeric D′D3-FP proteins, respectively, were immobilized to the covalently coupled anti-albumin antibody by a flow of the D′D3-FP proteins (5 μg/mL) over the chip for 3 min (flow rate of 10 μL/min).

[2] = molecular target: T1, rVIII-SingleChain (recombinant …); assay: SPR (Biacore T200), D′D3-FP captured via anti-albumin antibody, rVIII-SingleChain as analyte, single cycle kinetics, 25 °C; D′D3-FP monomer preparation
Protocol: as §1, §2, §3

Binder	Kd [1]	Kd [2]
D′D3-FP dimer (VWF D′D3 albumin fusion protein, dimeric preparation) (other, It was expressed from VWF amino acids 1-1242 with the propeptide cleaved; In the SPR assay it was captured on an immobilised anti-albumin antibody; also called dimeric D′D3-FP; rD′D3-FP) SLSCRPPMVKLVCPADNLRAEGLECTKTCQNYDLECMSMGCVSGCLCPPGMVRHENRCVALERCPCFHQGKEYAPGETVKIGCNTCVCRDRKWNCTDHVCDATCSTIGMAHYLTFDGLKYLFPGECQYVLVQDYCGSNPGTFRILVGNKGCSHPSVKCKKRVTILVEGGEIELFDGEVNVKRPMKDETHFEVVESGRYIILLLGKALSVVWDRHLSISVVLKQTYQEKVCGLCGNFDGIQNNDLTSSNLQVEEDPVDFGNSWKVSSQCADTRKVPLDSSPATCHNNIMKQTMVDSSCRILTSDVFQDCNKLVDPEPYLDVCIYDTCSCESIGDCACFCDTIAAYAHVCAQHGKVVTWRTATLCPQSCEERNLRENGYECEWRYNSCAPACQVTCQHPEPLACPVQCVEGCHAHCPPGKILDELLQTCVDPEDCPVCEVAGRRFASGKKVTLNPSDPEHCQICHCDVVNLTCEACQEPGGSSGGSGGSGGSGGSGGSGGSGGSGGSGGSGS[gap - about 600 residues]	0.034 nM	
D′D3-FP monomer (VWF D′D3 albumin fusion protein, monomeric preparation) (other, In the SPR assay it was captured on an immobilised anti-albumin antibody; also called monomeric D′D3-FP) SLSCRPPMVKLVCPADNLRAEGLECTKTCQNYDLECMSMGCVSGCLCPPGMVRHENRCVALERCPCFHQGKEYAPGETVKIGCNTCVCRDRKWNCTDHVCDATCSTIGMAHYLTFDGLKYLFPGECQYVLVQDYCGSNPGTFRILVGNKGCSHPSVKCKKRVTILVEGGEIELFDGEVNVKRPMKDETHFEVVESGRYIILLLGKALSVVWDRHLSISVVLKQTYQEKVCGLCGNFDGIQNNDLTSSNLQVEEDPVDFGNSWKVSSQCADTRKVPLDSSPATCHNNIMKQTMVDSSCRILTSDVFQDCNKLVDPEPYLDVCIYDTCSCESIGDCACFCDTIAAYAHVCAQHGKVVTWRTATLCPQSCEERNLRENGYECEWRYNSCAPACQVTCQHPEPLACPVQCVEGCHAHCPPGKILDELLQTCVDPEDCPVCEVAGRRFASGKKVTLNPSDPEHCQICHCDVVNLTCEACQEPGGSSGGSGGSGGSGGSGGSGGSGGSGGSGGSGS[gap - about 600 residues]		30 nM
